In PubChem BioAssay AID1240 (Sanford-Burnham Center for Chemical Genomics, 2008) one finds displacement data, which are given here for 108 molecules.

About 800 (1.6%) of roughly 50,000 compounds showed an effect of 50% or more. The list shows a part of the results.

The test has as its target Bcl-2-like protein 10 (Homo sapiens) (UniProt Q9HD36). The test is described as follows: Phenotype converters, Bcl-B/TR3 peptide binding displacement, primary biochemical FP (AID 1240).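 Note: 0% = Bcl-B with tracer peptide and DMSO and 100% = tracer peptide lacking Bcl-B.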 Particulars: GST-Bcl-B / FITC-TR3 peptide fluorescence polarization; stronger effect = higher value; compound at 3.75 mg/L. A general note: Fluorescence polarisation rises when a labelled molecule tumbles more slowly, as on binding a larger partner.
Sequence of UniProt Q9HD36 (Q9HD36 whole entry, looked up): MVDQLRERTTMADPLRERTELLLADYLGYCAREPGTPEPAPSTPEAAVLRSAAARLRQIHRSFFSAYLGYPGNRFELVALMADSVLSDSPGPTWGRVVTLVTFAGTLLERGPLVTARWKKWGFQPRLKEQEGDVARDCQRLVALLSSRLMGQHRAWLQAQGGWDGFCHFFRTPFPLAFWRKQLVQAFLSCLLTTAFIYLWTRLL
Take `CCOc1cc(C(=O)Nc2ccc(Br)cc2F)cc(OCC)c1OCC`: the displacement is -2.8%. `COc1cccc(C(=O)N2CCN(Cc3ccc(Cl)cc3)CC2)c1`: the displacement was -17%. Regarding `O=C1CC(N2CCN(Cc3ccc4c(c3)OCO4)CC2)C(=O)N1Cc1ccc(Cl)cc1` (stereo not drawn), the displacement was -3.1%.

Take `CC(Oc1ccccc1)C(=O)Nc1ccccc1C(=O)O` (stereo not drawn): the displacement was determined as 1.7%.

Regarding `O=C(Nc1ccc([N+](=O)[O-])cc1)C1CC(=O)N(c2ccc(Cl)cc2)C1` (stereo not drawn), the displacement is 14.3%. The result for `CCOc1cc(/C=N/NS(=O)(=O)c2ccc(OC)cc2)ccc1OCCN1CCOCC1` reads -5.7%; that for `CCOc1cc(/C=N/Nc2nc3ccccc3s2)ccc1OCc1ccccc1`, 3.3%. In the case of `CC(=O)NC(CCC(=O)OCc1ccccc1)C(=O)Nc1ccc(C)cc1` (stereo not drawn) it was 18.3%; in that of `CC(C)N1CCC(=NNC(=O)c2cccc([N+](=O)[O-])c2)CC1`, -6.4%; in that of `O=C(Nc1ncn[nH]1)c1ccc(F)cc1`, 2.7%. The result for `COc1cc(/C=N/N2CCN(c3ccccc3OC)CC2)ccc1OC(C)=O` reads 11.9%; that for `COc1ccc(/C=C(/NC(=O)c2ccccc2Br)C(=O)NC(Cc2ccccc2)C(=O)O)c(OC)c1` (stereo not drawn), -6.3%.

Consider `COC(=O)c1ccc(/C=C2/SC(=O)N(CNc3ccc(Br)cc3C)C2=O)cc1`, for which the displacement was -2.8%.

Turning to `CCN1C(=O)/C(=C\c2ccc(OC)c([N+](=O)[O-])c2)C(C(=O)OC)=C1C`, the displacement was -20.8%. In the case of `CCOc1ccc(/C=C(\NC(=O)c2ccc(C)cc2)c2nc3ccccc3[nH]2)cc1` it was -7.4%; in that of `CCOC(=O)c1ccccc1NC(=O)c1sc(NC(=O)c2ccc3c(c2)OCO3)c(C(=O)OCC)c1C`, -18.9%; in that of `COc1cc(NC(=O)COc2cccc3ccccc23)cc(OC)c1`, 4.1%.

With `Cc1c(OCC(=O)O)ccc2c3c(c(=O)oc12)CCCC3`, the displacement is -9%. The result for `C=CCN1C(=O)/C(=C\c2cc(OC)cc(OC)c2)SC1=S` reads 0.5%; that for `O=C1NN(c2ccccc2)C(=O)/C1=C/c1ccc(-c2ccccc2)o1`, 3%; that for `C/C(CCc1oc2c(Br)cc(Br)cc2c1-c1ccc(C)o1)=N\O`, 2.3%. In the case of `O=Cc1cccc(OCc2ccc(F)cc2)c1` it was 6.3%. The result for `CC1(C)C2CC3C(C)(O)C(c4ccccc4)P(=O)(Cc4ccccc4)C3(C)CC21` (stereo not drawn) reads 8.3%; that for `O=C(O)CCC(=O)Nc1nc(-c2cccc3ccccc23)cs1`, 12.7%; that for `CCOc1cccc(C(=O)Nc2ccc(Br)cc2C(=O)O)c1`, 11.9%. As for `Cc1cc(Nc2cccc(C(=O)O)c2)n2ncnc2n1`, the displacement stood at 13.6%. Consider `COc1ccc(C2CC(C(F)(F)F)n3nc(C(=O)Nc4cccc(O)c4)c(Cl)c3N2)cc1OC` (stereo not drawn), for which the displacement is 1.6%.

Consider `CC(C)C(=O)Nc1ccc(C(=O)Nc2ccccc2C(=O)O)cc1`, for which the displacement came to 13.8%.

Take `O=C1C2CC=C(Cl)CC2C(=O)N1CCc1c[nH]c2ccccc12` (stereo not drawn): the displacement is -1.8%.

With `Cc1c(CCNC(=O)c2ccccc2F)c2ccccc2n1Cc1ccccc1`, the displacement came out at 4.4%. In the case of `COC(=O)CNC(=O)CN(c1ccc(C)cc1C)S(=O)(=O)c1ccccc1` it was -9.8%; in that of `O=C(Nc1ccc2oc(-c3ccccc3)nc2c1)c1ccc(-c2ccc([N+](=O)[O-])cc2)o1`, 22.1%; in that of `Cc1ccnc(-n2c(=O)c3cc4c(=O)n(-c5cc(C)ccn5)c(=O)c4cc3c2=O)c1`, -4.6%.

Take `CC(C)OC(=O)C(C(=O)C(F)(F)F)c1cc(NS(=O)(=O)c2ccc(F)cc2)ccc1O` (stereo not drawn): the displacement was 4.7%. In the case of `COc1cc(/C=C2\SC(=Nc3ccc(O)cc3)NC2=O)ccc1O` it was -47.5%. In the case of `Cc1cc(/C=N\NC(=O)c2ccco2)c(C)n1-c1cccc(Cl)c1` it was -17.5%. As for `COC(=O)C1=C(C)NC(=O)/C1=C\c1ccc(Br)cc1`, the displacement was -0.3%.

On to `Cc1ccccc1-n1c(O)c(C=Nc2ccccc2F)c(=O)[nH]c1=O`, for which the displacement was -4.7%.

In the case of `CCOc1ccc(C(=O)Nc2ccc(I)cc2Cl)cc1Cl`, the displacement was -9.9%. The result for `CCn1nnnc1-c1ccc(OC)c(S(=O)(=O)Nc2ccccc2OC)c1` reads 11.2%; that for `NC(=O)c1c(NC(=O)/C=C/c2ccccc2Cl)sc2c1CCCC2`, 41%. `CCc1cccc(C)c1NC(=O)c1c(-c2ccccc2)noc1C`: the displacement is -2.1%. In the case of `CCOc1ccc2nc(SCC)[nH]c2c1` it was -5.9%. In the case of `COc1ccc(S(=O)(=O)N(CC(=O)N2CCCCCC2)c2cc(C)cc(C)c2)cc1OC` it was -9.7%. The result for `O=C1NN(c2ccc(F)cc2)C(=O)/C1=C\c1ccc(-c2cccc(C(=O)O)c2)o1` reads 29.6%; that for `Nc1nnnn1CC(=O)N/N=C/c1ccc(Cl)cc1`, 9.1%; that for `CC1=C(C(=O)OCc2ccc3c(c2)OCO3)C(c2cccc([N+](=O)[O-])c2)NC(=O)N1` (stereo not drawn), -0.1%. As for `COC(=O)c1c(NC(=O)c2ccc([N+](=O)[O-])c(C)c2)sc2c1CCCCCC2`, the displacement was -5.3%.

Take `CCOc1ccc2nc(SCC(=O)NCCc3ccccc3)sc2c1`: the displacement was -6.4%. The result for `Cc1ccc2c(c1)C1(c3ccccc3)Nc3ccc(C)cc3C1(c1ccccc1)N2` (stereo not drawn) reads 12.8%; that for `Cc1cccc(C(=O)Nc2cc(C(N)=O)cc(C(N)=O)c2)c1`, 15.8%; that for `CCOc1ccccc1NC(=O)/C=C/c1ccc(Cl)cc1`, 11.4%. Take `Cc1noc(NS(=O)(=O)c2ccc(NC(=O)CCCOc3ccccc3)cc2)c1C`: the displacement was determined as 3.7%.

Regarding `CC(=O)Nc1nc2n(n1)C(=O)CC(c1ccccc1)=N2`, the displacement is -8.4%. Take `COc1ccc(CN2CCN(C(=O)c3cccc(Cl)c3)CC2)c(OC)c1`: the displacement was -11.1%. In the case of `CC(=O)NC(C(Cl)(Cl)Cl)S(=O)(=O)c1ccccc1` (stereo not drawn) it was 3%; in that of `Cc1ccc(S(=O)(=O)Oc2ccc(Br)cc2/C=C2\SC(=S)NC2=O)cc1`, -30.6%; in that of `CCc1ccc(/C=N/n2cnnc2)cc1`, 14.6%. In the case of `O=C(Nc1ccc(NC(=O)c2ccc(Cl)cc2Cl)cc1)c1ccccc1F` it was -0.9%; in that of `Cc1ccc(NS(=O)(=O)c2ccc([N+](=O)[O-])cc2)cc1`, 15.1%. For the molecule `O=C(NCCCNc1ccc([N+](=O)[O-])cc1)c1cc2ccccc2o1`, the displacement worked out at 4.8%. In the case of `CC(C)(C)c1ccc(/C=N/N=C2\NC(=O)C(CC(=O)O)S2)cc1` (stereo not drawn) it was 8.5%; in that of `CCOc1ccc(S(=O)(=O)Nc2c(C)cc(C)cc2C)cc1`, 7.4%; in that of `CCOc1cc(C=O)ccc1OCC(N)=O`, 10.8%. In the case of `CCN(CC)CCN1C(=O)C(O)=C(C(=O)/C=C/c2ccccc2)C1c1cccc(F)c1` (stereo not drawn) it was 1.1%.

As for `COc1ccc(S(=O)(=O)Nc2cccc3ccccc23)cc1Br`, the displacement was -4.7%. Consider `CC(=O)Nc1cc(-c2ccc(Cl)cc2)nn1Cc1ccc(Cl)cc1`, for which the displacement was found to be 1.2%. Regarding `Cc1ccc(S(=O)(=O)NCCNC(=O)Nc2cccnc2)cc1`, the displacement is 14.6%. In the case of `O=c1cc(-c2ccccc2)nc(N2CCOCC2)[nH]1` it was -1.5%. The result for `CCOC(=O)C1=NNC2C(=O)N(c3ccccc3C)C(=O)C12` (stereo not drawn) reads 1.1%. The result for `CC(Nc1ccc(Br)cc1)C(=O)N/N=C/c1ccc(O)cc1O` (stereo not drawn) reads -18.1%. For the molecule `Cc1cccc(C)c1NC(=O)c1ccc([N+](=O)[O-])cc1Cl`, the displacement was determined as 4.7%. Consider `COc1cc(C=C2C(=O)NC(=O)NC2=O)cc(Cl)c1OC(C)C`, for which the displacement is 7.5%.

For the molecule `COc1ccc(C2/C(=C(/O)c3ccccc3)C(=O)C(=O)N2c2cccc(Br)c2)cc1` (stereo not drawn), the displacement is -1.1%. In the case of `Cc1ccc(C(=O)Nc2ccc(OCc3ccccc3)cc2)cc1[N+](=O)[O-]` it was -1.1%; in that of `COC(=O)c1c(NC(=O)c2ccc(OC)cc2)sc2c1CCC2`, 29.6%; in that of `COC(=O)c1ccc(N/C=C\C(=O)c2ccc3c(c2)OCO3)cc1`, 23.7%. The result for `O=C(Nc1ccc(NC(=O)c2ccc(-c3ccc(Br)cc3)o2)cc1)c1ccco1` reads 10.5%.

As for `Cc1c(C(=O)OC(C)C)sc(NC(=O)C(F)(F)F)c1C(=O)OC(C)C`, the displacement is 0.1%. In the case of `Cc1ccc(Sc2ccc(/C=c3\sc4nc5ccccc5n4c3=O)o2)cc1` it was 86.8%; in that of `O=C(c1ccccc1Cl)N1CCc2ccccc2C1`, 17.7%; in that of `CCCCN(C(=S)SC)C1CCS(=O)(=O)C1` (stereo not drawn), 3.2%.

In the case of `O=C(Nc1ccc(I)cc1Cl)c1ccc(Cl)cc1Cl`, the displacement is -9.7%. The result for `CN(C)c1ccc(CC2(CC(=O)c3ccccc3)C(=O)c3ccccc3C2=O)cc1` reads 1.8%. The result for `O=C(Nc1ccc(S(=O)(=O)N2CCOCC2)cc1)c1cccs1` reads -6%; that for `COC(=O)c1c(NC(=O)/C=C/C(=O)O)sc2c1CCC(C(C)(C)C)C2` (stereo not drawn), 5.1%.

Consider `Cc1cccc(N2C(=O)C3C4C=CC(C4=C4C5CC6CC(C5)CC4C6)C3C2=O)c1` (stereo not drawn), for which the displacement was -9%. The result for `CCCOc1ccc(C2=NNC(=O)CC2)cc1` reads 3.6%; that for `NC(=O)COc1ccc(/C=N/NS(=O)(=O)c2ccccc2)cc1`, 0.2%.

For the molecule `CCOC(=O)c1c(N)sc(C(=O)Nc2cccc(OC)c2)c1C`, the displacement turned out to be 14.1%. The result for `O=C(COc1cc2oc(=O)c3c(c2cc1Cl)CCC3)c1ccc(Cl)cc1` reads 3.8%. Turning to `NNC(=O)C1C(=O)NCC1c1ccccc1` (stereo not drawn), the displacement worked out at 1.8%. In the case of `O=C(NC(=S)Nc1cccc(NC(=O)c2ccccc2Cl)c1)c1ccco1` it was -1.3%. In the case of `NNC(=O)c1cc2ccccc2cc1NS(=O)(=O)c1ccccc1` it was -22%. As for `Cc1ccc(C(=O)N(c2c(C)n(C)n(-c3ccccc3)c2=O)C(C)C)cc1`, the displacement was 7.5%. The result for `COc1ccc(Br)cc1CN1CCN(S(C)(=O)=O)CC1` reads 8.3%; that for `O=C1C=C(N2CCN(C(c3ccccc3)c3ccccc3)CC2)C2(CCCCC2)O1`, 12.2%; that for `CCc1ccc(OCCSc2nc3ccccc3[nH]2)cc1`, -3.3%.

As to `O=C(CSc1nnc(-c2cccs2)n1-c1ccccc1)c1ccc(F)cc1`, the displacement worked out at 0.7%. `N/C(=N\N=C\c1ccc(O)c(O)c1)c1nonc1N`: the displacement was 13.2%. In the case of `C=CCNC(=O)C(=O)Nc1ccccc1C` it was 1.9%.

With `COC(=O)CCC(=O)Nc1cc(Cl)ccc1Cl`, the displacement came to 8.3%.

Turning to `COc1ccc(C(C2=C(O)CC(C)(C)CC2=O)C2=C(O)CC(C)(C)CC2=O)cc1CO`, the displacement was -1%. The result for `CC(C)c1ccc(N2C(=O)NC(=O)/C(=C/c3cc4c(cc3Cl)OCO4)C2=O)cc1` reads 18.3%; that for `COc1ccc2[nH]c(=O)c3c(c2c1)OC(C)(C)C=C3`, 13.5%; that for `CCOc1cc(C(=O)Nc2nn[nH]n2)cc(OCC)c1OCC`, -0.4%.

With `CCCCOC(=O)c1cccc(NC(=O)c2cc3ccccc3oc2=O)c1`, the displacement amounted to 1.7%. The result for `O=C(O)c1ccc(NC(=O)c2cc3cc([N+](=O)[O-])ccc3oc2=O)cc1` reads 12.5%.
